# Laboratory results: the supplement of paper PMC4166925
# ± gives the standard deviation of the averaged measurements. The full ranking holds about 33,000 sequences; the median of “E-score (dimensionless, -0.5 to 0.5)” is about -0.049, and the highest 2% start at about 0.37. The list shows a part of the results.
# Tested on: T1, PmTbr T-box DNA-binding domain (GST fusion)
# T1 sequence: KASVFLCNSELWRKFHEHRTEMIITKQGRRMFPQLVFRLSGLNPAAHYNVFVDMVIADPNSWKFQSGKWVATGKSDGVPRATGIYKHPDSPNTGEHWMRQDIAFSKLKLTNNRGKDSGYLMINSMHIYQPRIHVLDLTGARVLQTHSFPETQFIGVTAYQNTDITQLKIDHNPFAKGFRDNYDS
# Test: PBM E-score of 8-mer (E-score (dimensionless, -0.5 to 0.5)); Tbr is Tbrain of the sea star Patiria miniata (Pm) or the sea urchin Strongylocentrotus purpuratus (Sp); higher = stronger binding preference; most listed sequences are background and not binding sites
# Conditions: the construct has about 5 more residues each side
# Summary of the method: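 Universal Agilent oligonucleotide arrays, made double-stranded by primer extension, were incubated with 200 nM GST-fused Tbr T-box DNA-binding domain in PBS (pH 7.5). The protein was expressed in BL21 E. coli at 20 °C and purified by glutathione affinity chromatography. After scanning and quantification, the Universal PBM Analysis Suite assigned an enrichment E-score to each ungapped 8-mer, averaged over duplicate arrays.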
row,Sequence,PBM E-score of 8-mer
1,GCGGAGGA,-0.0841 ± 0.0039
2,CCTATGGA,-0.166 ± 0.039
3,ACGCGTGG,0.162 ± 0.071
4,CCAGACGC,-0.057 ± 0.12
5,CAACTAAC,0.1498 ± 0.00054
6,CCTGGTGC,0.244 ± 0.014
7,TGCCCAAA,-0.129 ± 0.032
8,AACCTAAC,0.0221 ± 0.052
9,AAGGTGGG,0.221 ± 0.026
10,GGCATTTA,0.00349 ± 0.0029
11,CCAGATAA,-0.021 ± 0.033
12,ACCCTGCG,0.2324 ± 0.00049
13,AAGTGCCT,-0.0671 ± 0.029
14,ATGTGTAC,-0.0302 ± 0.049
15,AGCACTAC,0.022 ± 0.017
16,ATGAGCTG,-0.0111 ± 0.047
17,ATAGCGCC,0.26087 ± 0.0002
18,CAAGCAGA,-0.157 ± 0.0024
19,CAACCGGC,-0.191 ± 0.091
20,ATTAGCTA,0.0681 ± 0.014
21,ATTCGCCC,-0.0514 ± 0.013
22,AGGCTTTG,-0.186 ± 0.034
23,CCGTGACA,0.299 ± 0.0035
24,CGGGTGGC,0.129 ± 0.034

row,Sequence,PBM E-score of 8-mer
1,GATCTGTA,-0.135 ± 0.06
2,AGGTCATG,-0.0844 ± 0.015
3,GTATCTGA,-0.173 ± 0.076
4,AGGTCAGA,-0.172 ± 0.025
5,TTAGTCAA,-0.0842 ± 0.046
6,ATGCTCGG,0.00834 ± 0.022
7,CTCCCGGC,-0.122 ± 0.055
8,AAGTGGAT,-0.0138 ± 0.035
9,AAACGTCT,-0.208 ± 0.056
10,CGTTGTCA,0.347 ± 0.031
11,CCGAGGCC,-0.139 ± 0.043
12,ATACTTCC,0.0697 ± 0.018
13,CAACTGTC,0.291 ± 0.0097
14,GAATACTC,-0.0525 ± 0.02
15,ATACGAGA,-0.185 ± 0.014
16,ACGTGGGG,-0.0498 ± 0.054
17,GACTGGGC,-0.259 ± 0.055
18,GTCGATGA,0.111 ± 0.046
19,CGATCTGC,0.0177 ± 0.039
20,GCGAGGTA,0.103 ± 0.0088
21,CGTTGAAG,0.0833 ± 0.0023
22,AGTCAGCA,-0.13 ± 0.051
23,ACAGGGGA,-0.0417 ± 0.069
24,CCTTGTCC,-0.0947 ± 0.035

row,Sequence,PBM E-score of 8-mer
1,TACGTGGA,-0.0875 ± 0.034
2,CTCTGCTC,-0.13866 ± 2.8e-05
3,AGCTTAAT,-0.16 ± 0.0074
4,CCTCTAGA,-0.197 ± 0.031
5,ATACTTGC,0.149 ± 0.029
6,GCGAGTAC,0.109 ± 0.05
7,CCGCAAAA,0.0227 ± 0.073
8,ATTAGACC,-0.245 ± 0.018
9,AGGACCCC,-0.311 ± 0.086
10,CGGGCCCA,-0.334 ± 0.045
11,CCGATTCA,-0.0688 ± 0.006
12,GTGGGAAA,0.269 ± 0.022
13,CAACGACC,-0.118 ± 0.069
14,CTCACCCA,0.118 ± 0.055
15,CCGGGTAC,-0.053 ± 0.0016
16,ATTAGTAG,0.0155 ± 0.063
17,GACTATCC,-0.158 ± 0.048
18,CTCCCATC,-0.228 ± 0.084
19,GCCACGGA,-0.125 ± 0.044
20,AACAACTT,0.103 ± 0.065
21,CAGAGACA,0.0652 ± 0.0091
22,ACACCTCT,0.48594 ± 0.00022
23,GAATTAGA,-0.223 ± 0.017
24,ACACTTTG,0.404 ± 0.014

row,Sequence,PBM E-score of 8-mer
1,ACAACTTC,0.107 ± 0.031
2,CGGCCTCA,-0.292 ± 0.062
3,TTATGAAA,0.00194 ± 0.088
4,AGCTCGTC,-0.235 ± 0.058
5,GCTGCAAA,0.00913 ± 0.022
6,CACTCCGG,0.246 ± 0.017
7,CAATCCTG,0.162 ± 0.015
8,ATGGCTGA,-0.243 ± 0.007
9,CGCCGGAC,-0.228 ± 0.082
10,AATCGAAG,-0.0883 ± 0.024
11,ATTTGCGG,-0.0635 ± 0.011
12,CCGATGCC,-0.264 ± 0.018
13,TAGCGAGA,0.212 ± 0.05
14,AACCCTCT,-0.212 ± 0.02
15,AGCCTAGC,-0.00521 ± 0.12
16,AGACCCGA,0.142 ± 0.031
17,CCGCGTCA,0.167 ± 0.034
18,TGCTACCA,0.0193 ± 0.032
19,CTACACTC,0.0444 ± 0.021
20,TAGCACGA,0.199 ± 0.039
21,ACCTCTTG,0.138 ± 0.027
22,AACCCGAA,-0.0671 ± 0.0056
